Where “and” joins values, the source holds several entries; their conditions need not be identical. Equal values may be shown once. Further values from the same series stand in other lists. Inconclusive results and toxic doses are left out.
Tested on: P388 leukemia ip, CD2F1 mice, survival T/C
Test: NCI In Vivo Anticancer Drug Screen. Data for tumor model P388 Leukemia (intraperitoneal) in CD2F1 (CDF1) mice
Details: endpoint: median survival time, higher = longer survival
In short: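 Mice carrying the transplanted tumor received test compound or vehicle. Survival was recorded in each group, and the value is the treated-group measurement divided by that of the vehicle-treated control group.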

For COc1cccc2c1C(=O)c1c(O)c3c(c(O)c1C2=O)C[C@@](O)(C(=O)CO)C[C@@H]3OC1CC(N)C(O)C(C)O1 (stereo partly drawn), the T/C (dose: 3.0 mg/kg/injection, schedule: Q01DX005 (ip), vehicle: saline) was 175 % of control, the T/C (dose: 3.2 mg/kg/injection, schedule: Q01DX001 (ip), vehicle: water) was 201 % of control and 184 % of control and the T/C (dose: 3.2 mg/kg/injection, schedule: Q01DX004 (ip), vehicle: saline) was 181 % of control and 207 % of control. The T/C (dose: 3.33 mg/kg/injection, schedule: Q01DX009 (ip), vehicle: saline) was 200 % of control and 175 % of control, the T/C (dose: 3.6 mg/kg/injection, schedule: Q04DX002 (ip), vehicle: saline) was 200 % of control and the T/C (dose: 3.6 mg/kg/injection, schedule: Q04DX002 (ip), vehicle: water) was 192 % of control. For the same compound, the T/C (dose: 3.6 mg/kg/injection, schedule: Q04DX003 (ip), vehicle: water) was 191 % of control, the T/C (dose: 4.0 mg/kg/injection, schedule: Q01DX005 (ip), vehicle: saline) was 187 % of control and the T/C (dose: 4.0 mg/kg/injection, schedule: Q01DX005 (ip), vehicle: water) was 215 % of control and 276 % of control. For the same compound, the T/C (dose: 4.0 mg/kg/injection, schedule: Q01DX005 (sc), vehicle: water) was 196 % of control, the T/C (dose: 4.0 mg/kg/injection, schedule: Q02DX002 (ip), vehicle: saline) was 198 % of control and the T/C (dose: 4.0 mg/kg/injection, schedule: Q03HX008 (ip), vehicle: saline) was 178 % of control. For the same compound, the T/C (dose: 4.0 mg/kg/injection, schedule: Q04DX002 (ip), vehicle: saline) was 214 % of control, the T/C (dose: 4.2 mg/kg/injection, schedule: Q01DX001 (ip), vehicle: water) was 187 % of control and 203 % of control and the T/C (dose: 4.32 mg/kg/injection, schedule: Q01DX001 (ip), vehicle: saline) was 182 % of control and 200 % of control. The T/C (dose: 4.5 mg/kg/injection, schedule: Q04DX002 (ip), vehicle: saline) was 188 % of control and 189 % of control and 208 % of control, the T/C (dose: 4.5 mg/kg/injection, schedule: Q04DX003 (ip), vehicle: water) was 200 % of control and the T/C (dose: 4.8 mg/kg/injection, schedule: Q04DX002 (ip), vehicle: saline) was 188 % of control and 217 % of control. The T/C (dose: 5.0 mg/kg/injection, schedule: Q01DX001 (ip), vehicle: water) was 155 % of control, the T/C (dose: 5.0 mg/kg/injection, schedule: Q01DX005 (ip), vehicle: saline) was 202 % of control and the T/C (dose: 5.0 mg/kg/injection, schedule: Q04DX003 (ip), vehicle: water) was 166 % of control. For the same compound, the T/C (dose: 5.6 mg/kg/injection, schedule: Q01DX001 (ip), vehicle: water) was 203 % of control and 233 % of control, the T/C (dose: 6.0 mg/kg/injection, schedule: Q04DX002 (ip), vehicle: saline) was 218 % of control and 240 % of control and the T/C (dose: 6.0 mg/kg/injection, schedule: Q04DX002 (ip), vehicle: water) was 188 % of control. The T/C (dose: 6.0 mg/kg/injection, schedule: Q04DX003 (ip), vehicle: water) was 169 % of control, the T/C (dose: 6.33 mg/kg/injection, schedule: Q01DX001 (ip), vehicle: saline) was 167 % of control and 172 % of control and the T/C (dose: 6.6 mg/kg/injection, schedule: Q01DX001 (ip), vehicle: saline) was 250 % of control. For the same compound, the T/C (dose: 6.7 mg/kg/injection, schedule: Q04DX003 (iv), vehicle: saline) was 191 % of control, the T/C (dose: 7.2 mg/kg/injection, schedule: Q01DX001 (ip), vehicle: saline) was 196 % of control and 356 % of control and the T/C (dose: 7.5 mg/kg/injection, schedule: Q01DX001 (ip), vehicle: saline) was 166 % of control. The T/C (dose: 7.5 mg/kg/injection, schedule: Q01DX001 (ip), vehicle: water) was 203 % of control and 233 % of control, the T/C (dose: 7.5 mg/kg/injection, schedule: Q04DX002 (ip), vehicle: saline) was 208 % of control and 219 % of control and 225 % of control and the T/C (dose: 7.5 mg/kg/injection, schedule: Q04DX003 (ip), vehicle: water) was 230 % of control. The T/C (dose: 8.0 mg/kg/injection, schedule: Q01DX001 (ip), vehicle: DMSO) was 191 % of control, the T/C (dose: 8.0 mg/kg/injection, schedule: Q01DX001 (ip), vehicle: other) was 183 % of control and the T/C (dose: 8.0 mg/kg/injection, schedule: Q01DX005 (sc), vehicle: water) was 86 % of control. For the same compound, the T/C (dose: 8.0 mg/kg/injection, schedule: Q02DX002 (ip), vehicle: saline) was 235 % of control, the T/C (dose: 8.0 mg/kg/injection, schedule: Q04DX002 (ip), vehicle: saline) was 225 % of control and the T/C (dose: 8.0 mg/kg/injection, schedule: Q04DX003 (ip), vehicle: saline) was 154 % of control. For the same compound, the T/C (dose: 8.0 mg/kg/injection, schedule: Q04DX003 (iv), vehicle: saline) was 184 % of control, the T/C (dose: 8.44 mg/kg/injection, schedule: Q01DX001 (ip), vehicle: saline) was 180 % of control and the T/C (dose: 9.0 mg/kg/injection, schedule: Q04DX002 (ip), vehicle: saline) was 269 % of control. For the same compound, the T/C (dose: 10.0 mg/kg/injection, schedule: Q01DX001 (ip), vehicle: water) was 223 % of control and 225 % of control, the T/C (dose: 10.0 mg/kg/injection, schedule: Q04DX002 (ip), vehicle: saline) was 93 % of control and the T/C (dose: 10.0 mg/kg/injection, schedule: Q04DX002 (ip), vehicle: water) was 291 % of control. For the same compound, the T/C (dose: 10.0 mg/kg/injection, schedule: Q04DX003 (ip), vehicle: water) was 150 % of control and 155 % of control, the T/C (dose: 10.0 mg/kg/injection, schedule: Q04DX003 (iv), vehicle: saline) was 214 % of control and the T/C (dose: 11.25 mg/kg/injection, schedule: Q01DX001 (ip), vehicle: saline) was 193 % of control and 202 % of control. The T/C (dose: 12.0 mg/kg/injection, schedule: Q01DX001 (ip), vehicle: saline) was 254 % of control and 279 % of control and 356 % of control, the T/C (dose: 13.3 mg/kg/injection, schedule: Q01DX001 (ip), vehicle: saline) was 204 % of control and the T/C (dose: 15.0 mg/kg/injection, schedule: Q01DX001 (iv), vehicle: saline) was 208 % of control. The T/C (dose: 16.0 mg/kg/injection, schedule: Q01DX001 (ip), vehicle: DMSO) was 215 % of control, the T/C (dose: 16.0 mg/kg/injection, schedule: Q01DX001 (ip), vehicle: Klucel (hydroxypropylcellulose) (HPC)) was 166 % of control and the T/C (dose: 16.0 mg/kg/injection, schedule: Q01DX001 (iv), vehicle: saline) was 229 % of control. For the same compound, the T/C (dose: 16.0 mg/kg/injection, schedule: Q02DX002 (ip), vehicle: saline) was 78 % of control, the T/C (dose: 16.0 mg/kg/injection, schedule: Q04DX003 (ip), vehicle: saline) was 166 % of control and 172 % of control and the T/C (dose: 17.5 mg/kg/injection, schedule: Q01DX001 (ip), vehicle: saline) was 196 % of control and 198 % of control. The T/C (dose: 20.0 mg/kg/injection, schedule: Q01DX001 (iv), vehicle: saline) was 219 % of control, the T/C (dose: 20.0 mg/kg/injection, schedule: Q04DX003 (ip), vehicle: water) was 163 % of control and the T/C (dose: 26.67 mg/kg/injection, schedule: Q01DX001 (ip), vehicle: saline) was 58 % of control. The T/C (dose: 26.67 mg/kg/injection, schedule: Q01DX001 (iv), vehicle: saline) was 203 % of control, the T/C (dose: 30.0 mg/kg/injection, schedule: Q01DX001 (ip), vehicle: saline) was 83 % of control and the T/C (dose: 40.0 mg/kg/injection, schedule: Q01DX001 (ip), vehicle: saline) was 84 % of control. For the same compound, the T/C (dose: 55.6 mg/kg/injection, schedule: Q01DX001 (oral), vehicle: saline) was 97 % of control, the T/C (dose: 64.0 mg/kg/injection, schedule: Q01DX001 (ip), vehicle: saline) was 58 % of control and the T/C (dose: 64.0 mg/kg/injection, schedule: Q04DX003 (ip), vehicle: saline) was 100 % of control. For the same compound, the T/C (dose: 92.6 mg/kg/injection, schedule: Q01DX001 (oral), vehicle: saline) was 95 % of control and the T/C (dose: 128.0 mg/kg/injection, schedule: Q01DX001 (ip), vehicle: saline) was 42 % of control.
